The text below walks through data of PMC12136788.

Some of the results follow.

The chains are these.
T1: UNK ZnF1-6 (called full-length) (human, UniProt Q9C0B0 30-357)
T1 sequence: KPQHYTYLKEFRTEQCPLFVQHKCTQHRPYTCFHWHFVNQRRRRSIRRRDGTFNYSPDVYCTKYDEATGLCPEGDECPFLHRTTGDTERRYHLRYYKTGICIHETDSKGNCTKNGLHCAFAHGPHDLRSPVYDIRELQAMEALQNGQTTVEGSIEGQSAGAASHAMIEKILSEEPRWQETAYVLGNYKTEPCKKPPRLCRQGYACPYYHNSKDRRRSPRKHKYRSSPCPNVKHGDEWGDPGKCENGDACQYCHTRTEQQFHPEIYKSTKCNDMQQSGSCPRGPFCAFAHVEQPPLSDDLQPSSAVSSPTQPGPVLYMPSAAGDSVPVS

B1: chr22:20142972:20143073:+|CDS|ENSG00000099904|msi1|FALSE|unique (ssRNA)
RNA: GGGAGUUCUACAGUCCGACGAUCGGGGAUCAUGUGGCCCUGCAGCCCCUGCGCUCUGAGGGGGGGCCCCCCACGCCCCACCGUAGCAUUUUUGCCCCCCAUGCACUGCCCAACCGCAACGGCAGCCUGUCCUAUGACAGCCUGCAACAGAGGAUUGAGCAUCA
B2: chr19:13098382:13098626:+|3pUTR|ENSG00000008441|msi1|FALSE|unique (ssRNA)
RNA: GGGAGUUCUACAGUCCGACGAUCACGCAGUAUAUACGAGUAUCUCUAUAUAUAGUACUAAUGGAUUUGGUGUGCUUCCCCCUUAGCGUCCCCCUCCCUCUGCUCCUCCUCCUUCAGCCUGGUCUCCCCCUCUUCUCUGCCCUCCAACAGAGGAUUGAGCAUCA
B3: chr7:101138466:101138856:+|3pUTR|ENSG00000106366|msi1|FALSE|unique (ssRNA)
RNA: GGGAGUUCUACAGUCCGACGAUCGAGUGGGGGGACAGAGACUCAGAUGAGGACAGAGUGGUUUCCAAUGUGUUCAAUAGAUUUAGGAGCAGAAAUGCAAGGGGCUGCAUGACCUACCAGGACAGAACUUUCCCCAAUUACAGGCAACAGAGGAUUGAGCAUCA
B4: chr9:26926431:26926536:-|CDS|ENSG00000137055|unk|total|mutant (ssRNA)
RNA: GGGAGUUCUACAGUCCGACGAUCAGAGGUUUGGCAAUUUUGAGUGAAACAGAAUUUCUUUCCUGUGCAAAUGAUGCCCGUAUCCGAAGGUGGCAAAUCACUGGCGAGUGUCUUGAAGUAUAUUAUGGACAUACAAAUUAUAUUCAACAGAGGAUUGAGCAUCA
B5: chr1:23559171:23559278:-|CDS|ENSG00000117318|unk|FALSE|unique (ssRNA)
RNA: GGGAGUUCUACAGUCCGACGAUCAACCACUGCUACUCCCGCCUGCGGGAACUGGUACCCGGAGUCCCGAGAGGCACUCAGCUUAGCCAGGUGGAAAUCCUACAGCGCGUCAUCGACUACAUUCUCGACCUGCAGGUAGUCCUGCAACAGAGGAUUGAGCAUCA
B6: ENSG00000066855:stop:overlap|stop_codon|ENSG00000066855|stop_codon|NA|stop_codon (ssRNA)
RNA: GGGAGUUCUACAGUCCGACGAUCGAGUGUUGUCCCUUCCAGCUGGCUUUAUUCAGCCCCACGUGUCCAAGCAUUGUCUGGGAUAGCCUUGUAUUGGAAAACCUGGCCCAUUCUGUAAAUAAAGGCUCCACUAGAAAAGACUCGCAACAGAGGAUUGAGCAUCA
B7: ENSG00000147955:stop:overlap|stop_codon|ENSG00000147955|stop_codon|NA|stop_codon (ssRNA)
RNA: GGGAGUUCUACAGUCCGACGAUCCUUCCACCAGUGGAGAGAGGGCACCACCAAAAGUGAGGUCUUCUACCCAGGGGAGACGGUAGUACACGGGCCUGGUGAGGCAACAGCUGUGGAGUGGGGGCCAAACACAUGGAUGGUGGACAACAGAGGAUUGAGCAUCA
B8: chr15:74179522:74179623:-|3pUTR|ENSG00000137868|msi1|FALSE|unique (ssRNA)
RNA: GGGAGUUCUACAGUCCGACGAUCUCAUGACUCAGACCAGGUCCCACACUGAGCUGCCCACACUCGAGAGCCAGAUAUUUUUGUAGUUUUUAUGCCUUUGGCUAUUAUGAAAGAGGUUAGUGUGUUCCCUGCAAUAAACUUGUUCAACAGAGGAUUGAGCAUCA
B9: chr11:85659139:85659240:-|3pUTR|ENSG00000137504|msi1|FALSE|unique (ssRNA)
RNA: GGGAGUUCUACAGUCCGACGAUCGUCUGAUUUAGUAAAAUUUUAAAGCUAAAUAAUCUGAUGACUCUUGAAAGUUUAAUUGGUAGUAUGACAUUUAUGUUUUUUUCCCCCAGACUCACAGCCAAUACAAAGUUUUGAGACUCCCAACAGAGGAUUGAGCAUCA
B10: chr12:39550845:39550946:-|3pUTR|ENSG00000173208|unk|total|mutant (ssRNA)
RNA: GGGAGUUCUACAGUCCGACGAUCGGUUCCAAGUACCGUUUCAUAUUUGGCAACCGAUUCAUCUUAUUCUAAUAUGUUUGGAACCGCUUUUUGAUUCAAUGAGUCCCGGAAAAUCUGUUACACAUUGAAACCCAAGUCCAGAGACAACAGAGGAUUGAGCAUCA
B11: chr1:162785649:162785750:+|3pUTR|ENSG00000162733|unk|total|mutant (ssRNA)
RNA: GGGAGUUCUACAGUCCGACGAUCUGAAUGUUGUUUUUUUGAAUGAACAUAAGACCGAAACAAAAACUUCUCAUCCAGUUAACCCGAGUGAAUGCCGGGAGAAUUGUUUUGCUUGUAACAUGGAGAGUUUAUUUUCAAGUGAGGCAACAGAGGAUUGAGCAUCA
B12: chr1:117368288:117368465:+|CDS|ENSG00000198162|unk|total|mutant (ssRNA)
RNA: GGGAGUUCUACAGUCCGACGAUCUUUUGGGGCAUUCUUUUUCCUUCCAGACUCUUCAAAACACAAACGCUUUGAUUUGGGUUCCGAAGAUGUGUUAAUUCCACAUGCCGAUGCCGGUAAAGGGGCUAAAAACCCCGGAGUCUUCAACAGAGGAUUGAGCAUCA
B13: chr1:32680599:32680700:+|3pUTR|ENSG00000162521|msi1|total|mutant (ssRNA)
RNA: GGGAGUUCUACAGUCCGACGAUCAAGUGCUUAAAAUGGAAUAAAUUGCUUUUCUACAUAACCCCAUGCUGAUGGGUUUUAUUCCGUAUAAAACAUCCAUCAAACACCAGUCUCUGGCUUCCCGAAGAGUCCUUCAGAUGACAGCAACAGAGGAUUGAGCAUCA
B14: chr4:48851844:48851957:+|CDS|ENSG00000109180|unk|total|mutant (ssRNA)
RNA: GGGAGUUCUACAGUCCGACGAUCAUAUGACUCAAGUGUGAGUGGUCAAUCAUCUUUUGUGACAUCCCCAGCAGCAGACAACACCGAAAUGCUUCCUCAUUAUGAGCCAAUUCCAUUCAGUUCUUCUAUGAAUGAAUCUGCUCCCAACAGAGGAUUGAGCAUCA
B15: chr19:57858129:57858983:-|three_prime_utr|ENSG00000204514|control|control|control (ssRNA)
RNA: GGGAGUUCUACAGUCCGACGAUCCCUGUGACACCCUGAGCUUACGUUUCUUUACAAACGAUGCUUCUCUGACACUCUUUCUGUAGAAUUUCUCUCCAAUAUGCUGCUUCUGGUGCUGAUGAAGGUAUGCAGUGUCAUCCAAGUCAACAGAGGAUUGAGCAUCA
B16: ENSG00000107863:be:win_1551|CDS|ENSG00000107863|bound_else_gene|NA|bound_elsewhere_windowed (ssRNA)
RNA: GGGAGUUCUACAGUCCGACGAUCUUCCAAUGGAGAGAAAAAACAGACUUACAAGUGGAGUGGGUUUACUGAACAGGAUGAUAGACGAGGUAUUUGUGAAAGACCUAGGCAGCAAGAAAUUCAUAAAUCUUUUCGAGGUUCCAACAACAGAGGAUUGAGCAUCA
B17: chr8:73046310:73046411:+|3pUTR|ENSG00000147601|msi1|FALSE|unique (ssRNA)
RNA: GGGAGUUCUACAGUCCGACGAUCUUGUAUUCUUUAAGAACCUUAUUUUGAUAAAAUGUAAAUUUGUUGAACCCUGCCACAUUUAGUAUCCCCACCCCCAAAUCCUGUUCCAAUGAAAAAAUUAAAACCUGAUACGAAAAAAAACAACAGAGGAUUGAGCAUCA
B18: chr10:62094764:62094865:+|3pUTR|ENSG00000150347|msi1|total|mutant (ssRNA)
RNA: GGGAGUUCUACAGUCCGACGAUCGAUGAACUCCCCAACCCACUGUGCCCCUCCCGCAACACUACCAGCCGACUUCCGAACCACCGUUAACUAAGUCUUUUACCUCUGAGAUACUUAAUUCUGGGAAAAUUGGUGACAAUUUUCCAACAGAGGAUUGAGCAUCA
B19: chr1:180199467:180199568:+|3pUTR|ENSG00000116260|msi1|total|mutant (ssRNA)
RNA: GGGAGUUCUACAGUCCGACGAUCCACAGGAACAAUUUCCUCAAGGAGACAGUGGCAUGGAGCUUUGAAAGACGAGCCGGUGUCCGCAAGGAAAUAAGGAGGAACGGGGGUUACGGGCAGAGGAGAAAGCACAUGCCAAGUCAGCAACAGAGGAUUGAGCAUCA
B20: ENSG00000070961:be:win_251|CDS|ENSG00000070961|bound_else_gene|NA|bound_elsewhere_windowed (ssRNA)
RNA: GGGAGUUCUACAGUCCGACGAUCUGUUUGGAAAGAAUUUUAUACCUCCUAAAAAGCCAAAAACCUUUCUUCAAUUAGUAUGGGAAGCAUUACAAGAUGUCACUUUAAUUAUAUUAGAAAUUGCAGCCAUAGUAUCAUUGGGCCCAACAGAGGAUUGAGCAUCA
B21: chr3:170392585:170392686:+|3pUTR|ENSG00000136603|msi1|FALSE|bound_elsewhere (ssRNA)
RNA: GGGAGUUCUACAGUCCGACGAUCUACAUUUUCCAAAUGAAUGAAAAUGUAUGUUUCUUUGUACUUUUUUAAAAAAAUCAGCUUAGUAACAAUACUAUAUGGUUUCAACUAGUAGGUAAUCUGCUUAUAUUUCUAAUGCAAACUCAACAGAGGAUUGAGCAUCA
B22: chr7:20412070:20412171:+|3pUTR|ENSG00000105855|msi1|total|mutant (ssRNA)
RNA: GGGAGUUCUACAGUCCGACGAUCCUUUUUUUUUAUAAUAAACUUCCAAGAUUUGCUGUCUUCCAGCACUUGAGUUAAAGUACCCGAUACUGCAUUUUGAUGAAGACUAACCCCAUCUCAUAUUCUACCCUAAAGAGAACUGAACAACAGAGGAUUGAGCAUCA

This assay has as its target T1, UNK ZnF1-6 (called full-length). Kind of assay: nsRBNS (natural sequence RNA bind-n-seq); RBNS binding buffer (assumed for nsRBNS): 25 mM Tris pH 7.5, 150 mM KCl, 3 mM MgCl2, 0.01% Triton X-100, 500 ug/ml BSA, 20 U/ml SUPERase-In, 4 C; UNK is unkempt and MSI1 is Musashi-1; names of the RNAs are library labels; protein concentration not given here; high values mean tight binding.
B1 yielded a binding signal of 0.918 enrichment R.

B2: the binding signal came to 1.99 enrichment R.

Turning to B3, the binding signal was determined as 1.62 enrichment R.

The molecule B4 yielded a binding signal of 0.428 enrichment R.

Turning to B5, the binding signal was 0.81 enrichment R.

For B6, the binding signal was 0.862 enrichment R.

For the molecule B7, the binding signal stood at 0.758 enrichment R.

In turn, B8 showed a binding signal of 2.72 enrichment R.

B9 showed a binding signal of 1.52 enrichment R.

On to B10, for which the binding signal was determined as 0.201 enrichment R.

Molecule B11 showed a binding signal of 0.302 enrichment R.

Turning to B12, the binding signal was 0.464 enrichment R.

For B13, the binding signal was 0.412 enrichment R.

As to B14, the binding signal amounted to 0.399 enrichment R.

B15: the binding signal was 0.469 enrichment R.

Molecule B16 had a binding signal of 0.757 enrichment R.

B17 returned a binding signal of 2.26 enrichment R.

As to B18, the binding signal is 0.98 enrichment R.

Take B19: the binding signal was 0.769 enrichment R.

On to B20, for which the binding signal turned out to be 5.79 enrichment R.

Molecule B21 yielded a binding signal of 0.916 enrichment R.

Take B22: the binding signal came out at 0.911 enrichment R.
